Results as given in PubChem BioAssay AID588549 (Broad Institute, 2011).
The campaign covered roughly 360,000 compounds. About 780 (0.22%) were called active. The inconclusive results got no clear call from the source; some entries with a clear call stand among them for comparison. No stated cut-off is given here; in the data, active means inhibition above about 8.5% (passing the limit was not always enough); inconclusive means no clear call, values can overlap the other calls.

system: Mycobacterium tuberculosis FadD28 fatty-acid-AMP ligase; test: inhibitors of FadD28 bisubstrate probe binding, primary screen, biochemical, fluorescence polarization, single point (AID 588549); conditions: at 12.5 µM, hits give high values

SMILES | inhibition
COc1cccc(S(=O)(=O)NCc2ccc(C(=O)N3CCN(c4ccccc4)CC3)cc2)c1 | inactive: -6.77%
CCN(CC)S(=O)(=O)c1ccc(NC(=O)COC(=O)c2ccc(Br)o2)cc1 | inconclusive: 7.5%
Cc1c(C(=O)O)cccc1-n1c(C)cc(/C=N/Nc2ccc([N+](=O)[O-])cn2)c1C | active: 34.1%
Cc1cc(-c2ccc(C)c(S(=O)(=O)Nc3ccc(S(N)(=O)=O)cc3)c2)on1 | active: 14.4%
Cc1nc2scc(C)n2c(=O)c1S(=O)(=O)N1CCN(c2ccccc2)CC1 | inactive: -0.473%
Cc1noc(C)c1COC(=O)Cc1ccc(Cl)cc1 | inactive: -0.324%
COc1ccc(/C=N/N=C2/NC(=O)C(CC(=O)O)S2)cc1OCc1ccccc1Cl (configuration not stated) | inactive: -1.27%
COc1ccc(C2NC3=C(CCC3)C3(C#N)C4(N=C(N)C23C#N)OCCO4)cc1 (configuration not stated) | inconclusive: 5.28%
O=C(NCCc1ccc(Cl)cc1)c1cnc2n(c1=O)CCS2 | inactive: -4.39%
CCCCCCCCCCCCCCCCCCNc1ccn(C2OC(COP(=O)(O)OCC3OC(n4cc(F)c(=O)[nH]c4=O)CC3O)C(O)C2O)c(=O)n1 (configuration not stated) | active: 53.4%
O=S(=O)(O)c1cc(O)c2c(O)c(N=Nc3cc(Cl)ccc3O)c(S(=O)(=O)O)cc2c1 | inconclusive: 5.04%
C=CCn1c(SCC(N)=O)nnc1-c1cnccn1 | inconclusive: 7.14%
CC(=O)NN1C(=O)/C(=C/c2ccc(Br)o2)SC1=S | inconclusive: 7.91%
O=C(N/C(=C/c1ccc(Br)cc1)C(=O)N1CCCC1)c1ccccc1F | inconclusive: 5.89%
Cc1ccc(C(=O)NNC(=S)NC(=O)c2ccccc2)cc1 | inconclusive: 3.74%
CCCC(=O)C1=C(c2ccccc2)C(C#N)(C#N)C(C#N)=C1N | inconclusive: 7.96%
CCc1c(O)nc(SCC(=O)Nc2nc3ccccc3s2)n(-c2ccccc2)c1=O | active: 14.4%
Cc1nc(-c2cccs2)ccc1C(=O)O | inconclusive: 3.16%
O=C(NCC1CCCO1)c1coc2nc3ccccc3nc12 (configuration not stated) | inactive: -1.2%

SMILES | inhibition
Cc1ccc(CSCCNC(=O)/C=C/c2ccccc2Cl)cc1 | inconclusive: 4.42%
O=C(Nc1sc2c(c1C(=O)O)CCCC2)c1cccc(Cl)c1 | inconclusive: 7.68%
NC(=S)n1[nH]c(-c2ccc([N+](=O)[O-])cc2)c(N=Nc2cccc([N+](=O)[O-])c2)c1=O | inconclusive: 6.12%
O=C(O)C1CC=C(Cl)CC1C(=O)NC1CCCCC1 (configuration not stated) | inactive: 0.921%
Brc1ccc(Sc2cnc3ccccc3n2)cc1 | inconclusive: 2.91%
Cn1nnnc1Sc1ncnc2scc(-c3ccc(Cl)cc3)c12 | inactive: -4.53%
COc1ccc2c(c1)C(=NNc1ccc(C(=O)O)cc1)c1cc(OC)ccc1-2 | inconclusive: 5.44%
COc1ccccc1CN1CCN(C(=O)c2ccco2)CC1 | inconclusive: 3.31%
Cc1ccc(-n2nc(C)c(NC(=O)COC(=O)c3ccccc3NCCO)c2C)cc1 | inactive: -0.516%
Cc1ccc(NC(=O)c2cc([N+](=O)[O-])ccc2N2CCOCC2)cc1C | inconclusive: 7.58%
COc1ccc(C(=O)NNC(=O)C(=O)N2CCCCC2)cc1OC | inconclusive: 14%
CC(C)CNC(=O)c1cc(S(=O)(=O)N2CCOCC2)ccc1N1CCCC1 | inconclusive: 5.47%
c1ccc(-c2nnc(N3CCCC3)nc2-c2ccccc2)cc1 | inconclusive: 5.12%
O=S(=O)(CCN1CCN(c2ccccc2O)CC1)c1cc(Cl)ccc1Cl | inconclusive: 83.2%
Cc1cc(NCC(=O)Nc2ccc(C)c(S(=O)(=O)N3CCOCC3)c2)ccc1Br | inconclusive: 6.44%
CC(=O)N1CC2(C)CN(C(C)=O)CC(C)(C1)C2=O | inconclusive: 8.16%
Cc1cccc(NC(=O)Cn2c(=O)oc3ccccc32)c1 | active: 34.6%
Cc1ccc(NC(=O)CSCC(=O)Nc2sccc2C#N)cc1 | inconclusive: 8.9%
O=C(COc1ccccc1-c1ccccc1)NCc1cccc(Cl)c1 | inconclusive: 6.8%

SMILES | inhibition
O=C1C=CC(=O)c2c(O)c(CO)c(CO)c(O)c21 | active: 18.3%
CCSc1ccccc1C(=O)Nc1cc(C)on1 | inconclusive: 4.86%
CC1CCC2C(=O)N(c3ccc(NC4CCN(Cc5ccccc5)CC4)c([N+](=O)[O-])c3)C(=O)C2C1 (configuration not stated) | inactive: 1.37%
Cc1cccc(NC(=O)CN2C(=O)N/C(=C/c3ccc(C)s3)C2=O)c1 | inconclusive: 7.19%
Nc1ccc(C(=O)O)cc1S(=O)(=O)O | inactive: -3.66%
O=C1c2[nH]nc(-c3ccccc3O)c2C(c2cccc(Cl)c2)N1Cc1ccco1 (configuration not stated) | inactive: -6.07%
COc1ccc(OC)c(/C=N/NC(=O)CCCC(=O)Nc2cccc(Br)c2)c1 | inactive: -2.92%
CC1CCCC(NC(=O)CSC2CCCCC2)C1C (configuration not stated) | inactive: -2.27%
CCc1cc(=O)oc2cc(OCc3nn[nH]n3)ccc12 | inactive: -0.959%
COc1cccc(NC(=O)Cn2nnc(-c3ccccc3N)n2)c1 | active: 14.7%
COc1ccc(C(=O)NCc2ccc(C)cc2)cc1S(=O)(=O)N1CCCC1 | active: 28%
Cc1cccn2c(=O)c3cc(C(=O)N4COCC4(C)C)sc3nc12 | inactive: -2.92%
CC(=O)NS(=O)(=O)c1ccc(N=c2ssc3c2-c2ccc(C)cc2NC3(C)C)cc1 | active: 14.3%
COc1cccc(-c2nc3ccc(C(=O)NC(C)Cc4cccnc4)cc3o2)c1 (configuration not stated) | inconclusive: 7.07%
COC(=O)c1ccc2c(c1)c(-c1ccccc1)c(-c1ccccc1)n2C | inactive: -1.46%
Cc1ccccc1NC(=O)C(C)OC(=O)CCC(=O)c1ccccc1 (configuration not stated) | inactive: -0.839%
O=C(COc1ccc(/C=N/NC(=O)c2ccncc2)cc1)Nc1cccc([N+](=O)[O-])c1 | inactive: -0.824%
O=C(CN1C(=O)S/C(=C\c2cc(Cl)c(O)c(Cl)c2)C1=O)Nc1ccccc1 | active: 75.6%
CCCCCCCCCCCCCCC[C@@H](O)[C@@H](N)CO | active: 47.9%
